Test results taken from article PMC4336329 (PLoS ONE, 2015).
Hit rate of the full screen: of about 310,000 compounds, about 14,000 (4.5%) showed an effect of 50% or more. The effect is printed as a negative number. Some of the results follow.

What follows are compounds tested against human ether-à-go-go-related gene (hERG) potassium channel (human, UniProt Q12809) (assay: primary screen, population patch clamp on CHO cells stably expressing hERG).
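Further: peak tail current of the secondary pulse compared with the same well before compound.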

Chain of human ether-à-go-go-related gene (hERG) potassium channel (Q12809 whole entry, looked up): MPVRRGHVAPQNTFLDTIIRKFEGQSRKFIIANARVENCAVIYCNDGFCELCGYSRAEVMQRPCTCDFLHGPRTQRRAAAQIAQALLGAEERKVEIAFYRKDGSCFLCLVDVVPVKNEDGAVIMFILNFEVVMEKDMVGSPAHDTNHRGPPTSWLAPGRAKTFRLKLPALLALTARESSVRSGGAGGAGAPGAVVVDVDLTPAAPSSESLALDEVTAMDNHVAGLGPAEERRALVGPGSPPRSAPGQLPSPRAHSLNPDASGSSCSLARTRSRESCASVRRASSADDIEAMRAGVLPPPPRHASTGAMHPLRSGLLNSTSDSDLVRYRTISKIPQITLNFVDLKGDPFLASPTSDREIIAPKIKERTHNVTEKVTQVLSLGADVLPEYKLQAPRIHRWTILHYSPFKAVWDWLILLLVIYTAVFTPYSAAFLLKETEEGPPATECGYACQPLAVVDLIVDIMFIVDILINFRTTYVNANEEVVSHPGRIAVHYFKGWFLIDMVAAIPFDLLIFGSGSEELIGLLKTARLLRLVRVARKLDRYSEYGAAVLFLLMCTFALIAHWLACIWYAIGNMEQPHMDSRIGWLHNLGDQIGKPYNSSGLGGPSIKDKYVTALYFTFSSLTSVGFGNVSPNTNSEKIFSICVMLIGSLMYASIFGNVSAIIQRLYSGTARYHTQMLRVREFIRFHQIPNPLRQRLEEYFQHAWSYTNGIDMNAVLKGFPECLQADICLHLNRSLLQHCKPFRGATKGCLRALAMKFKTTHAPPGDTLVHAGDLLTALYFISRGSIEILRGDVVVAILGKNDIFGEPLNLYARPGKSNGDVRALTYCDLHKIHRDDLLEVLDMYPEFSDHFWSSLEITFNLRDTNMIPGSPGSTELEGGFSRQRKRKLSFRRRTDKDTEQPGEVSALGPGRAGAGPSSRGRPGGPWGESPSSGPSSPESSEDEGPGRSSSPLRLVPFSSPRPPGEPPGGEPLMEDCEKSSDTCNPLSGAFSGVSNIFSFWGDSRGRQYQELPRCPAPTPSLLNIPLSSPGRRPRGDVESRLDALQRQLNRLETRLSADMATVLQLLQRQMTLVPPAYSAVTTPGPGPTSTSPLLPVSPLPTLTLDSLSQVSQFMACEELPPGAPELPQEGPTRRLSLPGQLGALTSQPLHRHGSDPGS

In order of falling “hERG current change (%, negative = inhibition) at 10uM” value:
1. NC(=O)CC(NC(=O)Cc1ccc(Cl)cc1)c1ccc(N2CCN(c3ccccn3)CC2)c([N+](=O)[O-])c1 (stereo not drawn)  25.9%
2. CC(C)(C)Nc1nc2cc([N+](=O)[O-])ccc2o1  21.3%
3. Cc1cccc(-n2c(C)cc(C=C3C(=O)c4ccccc4C3=O)c2C)c1  21.1%
4. Cc1nsc2nc3c(F)c(F)c(F)c(F)c3cc12  17.2%
5. COC(=O)c1sc(N2C(=O)C(O)=C(C(=O)c3ccc(C)o3)C2c2cc(OC)ccc2OC)nc1C (stereo not drawn)  16.7%
6. NC(=O)CC(NC(=O)c1ccccc1)c1ccc(NC2CCCCC2)c([N+](=O)[O-])c1 (stereo not drawn)  16.4%
7. CC1=NN(C(=O)c2csc(C)c2)C(O)(C(F)(F)F)C1 (stereo not drawn)  15.6%
8. Cc1ccc(CSc2nnc(SCC(=O)N/N=C/c3ccc(C(=O)O)cc3)s2)cc1  14.2%
9. O=C(Cn1c(=O)n(CCCCC(=O)NC2CCCC2)c(=O)c2ccccc21)NCCC1=CCCCC1  12%
10. CCCCNC(=O)c1sc(=S)n2c1[nH]c(=O)c1ccc(C(=O)NCCc3ccc(OC)c(OC)c3)cc12  11.7%
11. O=C(CSc1nc(NS(=O)(=O)c2ccccc2)cc(=O)[nH]1)Nc1ccc(F)cc1  10.7%
12. Nc1cccc(NC(=O)CCC(=O)NCc2ccco2)c1  10.6%
13. CS(=O)(=O)c1ccccc1C(=O)Nc1ccc2sccc2c1  10.5%
14. Br.CC1=CS(=O)(=O)CC1Sc1ncn[nH]1 (stereo not drawn)  10.2%
15. O=C1c2ccccc2NC(c2cnc3ccccc3n2)N1O (stereo not drawn)  8.98%
16. CCN1C(=O)N(CC)C(=O)C2(Cc3ccccc3N3CCN(c4ccccc4)CC32)C1=O (stereo not drawn)  7.3%
17. O=S(=O)(c1ccccc1)N1CCN(C(=S)NCCCN2CCOCC2)CC1  6.62%
18. COc1ccc2c(CC(=O)Nc3ncc(C)s3)coc2c1  5.72%
19. O=C(CCCn1c(=S)[nH]c2cc3c(cc2c1=O)OCO3)NCc1ccco1  5.69%
20. O=C(COC(=O)Cn1cnc2ccccc2c1=O)NCC12CC3CC(CC(C3)C1)C2  5.66%
21. CCCCn1c(N)c(N(CCOC)C(=O)CSc2nc3ccc(C)cc3[nH]2)c(=O)[nH]c1=O  4.27%
22. CC1(C(=O)N2CCC(CO)(Cc3cccc(C(F)(F)F)c3)CC2)CC1  4.02%
23. NNC(=O)c1sccc1OCc1cccc(C(F)(F)F)c1  3.95%
24. Cc1cccc(NC(=O)CC(C)(C)C)c1  3.01%
25. COC(=O)c1cn(NC(=O)C2CCCCC2)c(=O)c2ccccc12  2.64%
26. CC(C)N(C(=O)NC(=O)Nc1ccccn1)S(C)(=O)=O  2.35%
27. Cc1nnc2c(NC3CCCCC3)nc3ccccc3n12  1.89%
28. O=C(CCCC(=O)N/N=C/c1ccccc1C(=O)O)N/N=C/c1ccccc1C(=O)O  1.62%
29. COc1cc(OC)cc(-c2nnc(NC(=O)c3ccc4c(c3)OCCO4)o2)c1  0.541%
30. CCOC(=O)C1=C(c2ccccc2)N=c2s/c(=C\c3cc(OC)c(OC)c(OC)c3)c(=O)n2C1c1cccs1 (stereo not drawn)  0.0851%
31. Cc1nc(C)c(C(=O)Nc2cccc(C)c2C)o1  -0.939%
32. CCC(C)[C@H](NC(=O)NC1CC1)C(=O)O (stereo partly drawn)  -1.44%
33. CCCCOc1ccc(C(=O)N/C(=C\c2ccc(OC)cc2)C(=O)OCc2ccco2)cc1  -1.47%
34. CCOc1ccc(C(=O)CC(Sc2ccc(C)cc2)C(=O)O)cc1 (stereo not drawn)  -1.67%
35. Cc1c(/C(O)=C2\C(=O)C(=O)N(CCN(C)C)C2c2cccs2)cnn1-c1ccccc1 (stereo not drawn)  -1.9%
36. COc1cccc(N2C(C(C)=O)=NN(c3ccccc3)C2c2ccc(N3CCOCC3)cc2)c1 (stereo not drawn)  -1.98%
37. CN(CCc1ccccn1)C(=O)c1cc(COc2ccc(F)cc2F)on1  -2.82%
38. COc1ccc(S(=O)(=O)N2CCOCC2)cc1C(=O)Nc1ccon1  -4.81%
39. COc1ccc(CNC(=O)Cn2nc(-c3ccc4c(c3)OCCO4)ccc2=O)cc1  -5.05%
40. O=C(NCc1ccco1)c1ccc(COc2cc(Cl)ccc2Cl)cc1  -5.22%
41. O=C(CCC(=O)c1cccs1)NNC(=O)c1ccccc1Cl  -10.4%
42. Cc1cccc2cc(/C=N/NC(=O)CN3CCCCC3)c(Cl)nc12  -12.8%
43. Cc1ccc(NC(=O)N2CCCC2C(=O)NCCC2=CCCCC2)cc1 (stereo not drawn)  -14.6%
44. CCOC(=O)C1CCCN(S(=O)(=O)c2cccc3cccnc23)C1 (stereo not drawn)  -14.9%
45. C=CCSc1nc2c(c(=O)[nH]c(=O)n2C)n1C/C=C(/C)Cl  -20.8%
46. Cc1ccc(N2CCN(C(=O)C3CCC(=O)N(Cc4ccc(Cl)cc4)C3)CC2)c(C)c1 (stereo not drawn)  -23.7%
47. COc1ccccc1CCC(=O)N1CCN(S(=O)(=O)c2cccc(F)c2)CC1  -24.8%
48. O=C(Cn1cnc2c(cnn2-c2ccc(F)cc2)c1=O)N1CCCc2ccccc21  -27%
49. CCOc1ccc(N(CC(=O)N2CCCCCC2)S(=O)(=O)c2ccc(C)cc2)cc1  -29.1%
50. COc1ccc([N+](=O)[O-])cc1N/C(=N/S(=O)(=O)c1ccccc1)c1ccccc1  -57.8%
51. Cc1ccc(C(=O)NCCNc2ccc(Cl)cc2[N+](=O)[O-])o1  -60%
52. O=C(CN1C(=O)NC2(CCCCC2)C1=O)N1CCN(S(=O)(=O)c2cccc(F)c2)CC1  -61.8%
53. COc1ccccc1CN1CCN(Cc2ccc(Cl)cc2)CC1.O=C(O)C(=O)O  -62.5%
54. CCc1cccc(NC(=O)C2CCCN2S(=O)(=O)c2ccc3c(c2)CC(C)N3C(C)=O)c1 (stereo not drawn)  -71.2%
